According to paper PMC4207660, “Identification and Characterization of Hundreds of Potent and Selective Inhibitors of Trypanosoma brucei Growth from a Kinase-Targeted Library Screening Campaign” (PLoS Neglected Tropical Diseases, 2014):

Columns and labels:
ChromlogD assay = settings: reversed-phase HPLC column (Luna C18 (2)), pH 7.4
Experimental: The Chromatographic Hydrophobicity Index (CHI)[22] values were measured using reversed phase HPLC column (Luna C18 (2), Phenomenex, UK) with a fast acetonitrile gradient at starting mobile phase of pH = 7.4. CHI values are derived directly from the gradient retention times by using a calibration line obtained for standard compounds. The CHI value approximates to the volume % organic concentration when the compound elutes. […] The average error of the assay is ±3 CHI unit or ±0.25 ChromlogD.

[1] = tested on: T. brucei brucei parasites (Lister 427 strain); assay: Dose response growth inhibition assay (resazurin, 72 h); type: cell-based; settings: Trypanosoma brucei, 72 h; read-out: pEC50 (converted)
Experimental: Greiner sterile black clear bottom 384-well assay plates were pre-dispensing with 200 nL of compound in each well, from master plates at 1 mM (100% DMSO) containing selection from the GSK compound collection. Controls of 0% response (control 1, 200 nL of 100%DMSO) and 100% response (control 2, 200 nL of 1 mM pentamidine) were included in each assay plate in columns 6 and 18, respectively. Plates containing 200 nL of 100% DMSO were included randomly in the assay, to assess quality through all process. […] After this period, 10 µL of 200 µM resazurin solution in prewarmed HMI-9 were added to each well, and plates were allowed to incubate 2 hours more prior fluorescence reading in a Wallac EnVision Multilabel Plate Reader (Perkin-Elmer). Raw fluorescent data from the Envision plate reader were uploaded into GSK HTS database (ActivityBase). Activity of each well was normalized as a percentage of inhibition per-plate basis using the following equation: [drawing 1]
For dose-response experiments, serial compound dilutions of selected hits from the primary campaign were plotted against compound concentration. Dose response master plates were prepared by 3-fold dilutions (starting with 10 mM DMSO stock solutions), providing 11 concentrations. From these master plates, 200 nL per well was stamped in final assay plates, including the same controls describe in the primary single shot assay. […]

Structure (SMILES)	logD (ChromlogD assay)	EC50 [1] [nM]
Cc1cccc(Nc2nc(OCCN)ncc2C(N)=O)c1 [NEU-0001103]	2.05	339
CCn1nccc1NC(=O)c1ncnc2ccc(-c3cccc(S(C)(=O)=O)c3)cc12 [NEU-0001104]	2.82	251
